# This is one part of the list.
# Experiments:
# Test in all cases: glycan array binding signal (z-score within array); higher = stronger binding
# Conditions in all cases: glycan notation: IUPAC condensed, linker removed
# [1] = target: Gal(b1-3)[Fuc(a1-4)]GlcNAc(b1-3)Gal(b1-4)[Fuc(a1-3)]GlcNAc
# Outline: (§1)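 The binding signal is a Z-score computed within each array and averaged over linkers. Arrays of the same protein sequence at different concentrations or buffers were also averaged together. Data originate from 3228 arrays in the Consortium for Functional Glycomics database, kept only where the protein sequence was available.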
# [2] = target: Gal(b1-3)[GlcNAc(b1-6)]GalNAc
# Outline: as §1
# [3] = target: Gal(b1-3)[Neu5Ac(a2-6)]GalNAc
# Outline: as §1
# [4] = target: Gal(b1-3)[Neu5Ac(a2-6)]GlcNAc(b1-6)Gal(b1-4)Glc
# Outline: as §1
# [5] = target: Gal(b1-3)[Neu5Ac(b2-6)]GalNAc
# Outline: as §1
# [6] = target: Gal(b1-4)GalNAc(a1-3)[Fuc(a1-2)]Gal(b1-4)GlcNAc
# Outline: as §1
# [7] = target: Gal(b1-4)GalNAc(b1-3)[Fuc(a1-2)]Gal(b1-4)GlcNAc
# Outline: as §1
# Gal(b1-4)Glc = target: Gal(b1-4)Glc
# Outline: as §1
# Gal(b1-4)Glc6S = target: Gal(b1-4)Glc6S
# Outline: as §1
# Gal(b1-4)GlcNAc = target: Gal(b1-4)GlcNAc
# Outline: as §1
# [8] = target: Gal(b1-4)GlcNAc(a1-6)Gal(b1-4)GlcNAc
# Outline: as §1
# [9] = target: Gal(b1-4)GlcNAc(b1-2)Man(a1-3)[Gal(b1-4)GlcNAc(b1-2)Man(a1-6)]Man(b1-4)GlcNAc(b1-4)GlcNAc
# Outline: as §1
# [10] = target: Gal(b1-4)GlcNAc(b1-3)Gal(b1-3)GlcNAc
# Outline: as §1
# [11] = target: Gal(b1-4)GlcNAc(b1-3)Gal(b1-4)Glc
# Outline: as §1
# [12] = target: Gal(b1-4)GlcNAc(b1-3)Gal(b1-4)GlcNAc
# Outline: as §1
# [13] = target: Gal(b1-4)GlcNAc(b1-3)Gal(b1-4)GlcNAc(b1-3)Gal(b1-4)GlcNAc
# Outline: as §1
# [14] = target: Gal(b1-4)GlcNAc(b1-3)Gal(b1-4)[Fuc(a1-3)]GlcNAc(b1-3)Gal(b1-4)[Fuc(a1-3)]GlcNAc
# Outline: as §1
# [15] = target: Gal(b1-4)GlcNAc(b1-3)GalNAc
# Outline: as §1
# [16] = target: Gal(b1-4)GlcNAc(b1-3)[Gal(b1-4)GlcNAc(b1-6)]Gal(b1-4)GlcNAc
# Outline: as §1
# [17] = target: Gal(b1-4)GlcNAc(b1-3)[GlcNAc(b1-6)]Gal(b1-4)GlcNAc
# Outline: as §1
# [18] = target: Gal(b1-4)GlcNAc(b1-6)Gal(b1-4)GlcNAc
# Outline: as §1
# [19] = target: Gal(b1-4)GlcNAc(b1-6)Gal(b1-4)GlcNAc(b1-6)GalNAc
# Outline: as §1
# [20] = target: Gal(b1-4)GlcNAc(b1-6)GalNAc
# Outline: as §1
# [21] = target: Gal(b1-4)GlcNAc(b1-6)[Gal(b1-3)]GalNAc
# Outline: as §1
# Gal3S(b1-3)GalNAc = target: Gal3S(b1-3)GalNAc
# Outline: as §1
# Gal3S(b1-3)GlcNAc = target: Gal3S(b1-3)GlcNAc
# Outline: as §1
# [22] = target: Gal3S(b1-3)[Fuc(a1-4)]GlcNAc
# Outline: as §1
# Gal3S(b1-4)Glc = target: Gal3S(b1-4)Glc
# Outline: as §1
# Gal3S(b1-4)Glc6S = target: Gal3S(b1-4)Glc6S
# Outline: as §1
# Gal3S(b1-4)GlcNAc = target: Gal3S(b1-4)GlcNAc
# Outline: as §1
# Gal3S(b1-4)GlcNAc6S = target: Gal3S(b1-4)GlcNAc6S
# Outline: as §1
# [23] = target: Gal3S(b1-4)[Fuc(a1-3)]Glc
# Outline: as §1
# Gal3S4S(b1-4)GlcNAc = target: Gal3S4S(b1-4)GlcNAc
# Outline: as §1
# Gal3S6S(b1-4)GlcNAc = target: Gal3S6S(b1-4)GlcNAc
# Outline: as §1
# Gal3S6S(b1-4)GlcNAc6S = target: Gal3S6S(b1-4)GlcNAc6S
# Outline: as §1
# Gal4S(b1-4)GlcNAc = target: Gal4S(b1-4)GlcNAc
# Outline: as §1
# Gal4S6S(b1-4)GlcNAc = target: Gal4S6S(b1-4)GlcNAc
# Outline: as §1
# Gal6S(b1-4)Glc = target: Gal6S(b1-4)Glc
# Outline: as §1
# Gal6S(b1-4)Glc6S = target: Gal6S(b1-4)Glc6S
# Outline: as §1
# Gal6S(b1-4)GlcNAc = target: Gal6S(b1-4)GlcNAc
# Outline: as §1
# Gal6S(b1-4)GlcNAc6S = target: Gal6S(b1-4)GlcNAc6S
# Outline: as §1
# GalNAc(a1-3)Gal = target: GalNAc(a1-3)Gal
# Outline: as §1
# GalNAc(a1-3)GalNAc = target: GalNAc(a1-3)GalNAc
# Outline: as §1
# GalNAc(b1-3)Gal = target: GalNAc(b1-3)Gal
# Outline: as §1
# [24] = target: GalNAc(b1-3)Gal(a1-4)Gal(b1-4)GlcNAc
# Outline: as §1
# GalNAc(b1-3)GalNAc = target: GalNAc(b1-3)GalNAc
# Outline: as §1
# GalNAc(b1-4)GlcNAc = target: GalNAc(b1-4)GlcNAc
# Outline: as §1
# Glc(a1-4)Glc = target: Glc(a1-4)Glc
# Outline: as §1
# Glc(a1-6)Glc(a1-6)Glc = target: Glc(a1-6)Glc(a1-6)Glc
# Outline: as §1
# Glc(b1-4)Glc = target: Glc(b1-4)Glc
# Outline: as §1
# Glc(b1-6)Glc = target: Glc(b1-6)Glc
# Outline: as §1
# GlcA(b1-3)Gal = target: GlcA(b1-3)Gal
# Outline: as §1
# GlcA(b1-3)GlcNAc = target: GlcA(b1-3)GlcNAc
# Outline: as §1
# GlcA(b1-6)Gal = target: GlcA(b1-6)Gal
# Outline: as §1
# [25] = target: GlcNAc(a1-3)Gal(b1-4)GlcNAc
# Outline: as §1
# [26] = target: GlcNAc(a1-6)Gal(b1-4)GlcNAc
# Outline: as §1
# [27] = target: GlcNAc(b1-2)Gal(b1-3)GalNAc
# Outline: as §1
# [28] = target: GlcNAc(b1-2)Man(a1-3)[GlcNAc(b1-2)Man(a1-6)]Man(b1-4)GlcNAc(b1-4)GlcNAc
# Outline: as §1
# GlcNAc(b1-3)Gal = target: GlcNAc(b1-3)Gal
# Outline: as §1
# [29] = target: GlcNAc(b1-3)Gal(b1-3)GalNAc
# Outline: as §1
# GlcNAc(b1-3)Gal(b1-4)Glc = target: GlcNAc(b1-3)Gal(b1-4)Glc
# Outline: as §1
# [30] = target: GlcNAc(b1-3)Gal(b1-4)GlcNAc
# Outline: as §1
# [31] = target: GlcNAc(b1-3)Gal(b1-4)GlcNAc(b1-3)Gal(b1-4)GlcNAc
# Outline: as §1
# GlcNAc(b1-3)GalNAc = target: GlcNAc(b1-3)GalNAc
# Outline: as §1
# GlcNAc(b1-3)Man = target: GlcNAc(b1-3)Man
# Outline: as §1
# [32] = target: GlcNAc(b1-3)[GlcNAc(b1-4)][GlcNAc(b1-6)]GlcNAc
# Outline: as §1
# [33] = target: GlcNAc(b1-3)[GlcNAc(b1-6)]Gal(b1-4)GlcNAc
# Outline: as §1
# [34] = target: GlcNAc(b1-3)[GlcNAc(b1-6)]GalNAc
# Outline: as §1
# [35] = target: GlcNAc(b1-4)Gal(b1-4)GlcNAc
# Outline: as §1
# GlcNAc(b1-4)GlcNAc = target: GlcNAc(b1-4)GlcNAc
# Outline: as §1
# [36] = target: GlcNAc(b1-4)GlcNAc(b1-4)GlcNAc
# Outline: as §1
# [37] = target: GlcNAc(b1-4)GlcNAc(b1-4)GlcNAc(b1-4)GlcNAc(b1-4)GlcNAc
# Outline: as §1
# [38] = target: GlcNAc(b1-4)GlcNAc(b1-4)GlcNAc(b1-4)GlcNAc(b1-4)GlcNAc(b1-4)GlcNAc
# Outline: as §1
# [39] = target: GlcNAc(b1-4)[GlcNAc(b1-6)]GalNAc
# Outline: as §1
# [40] = target: GlcNAc(b1-6)Gal(b1-4)GlcNAc
# Outline: as §1
binder,measurement,setting,value
GH98CBM (Clostridium perfringens) (protein) EVYALEESRDVYLSDLDWLNATHGDDTKSKIVQKNHPFTPGNNNQSTKISLKMEDGSISEFEKGLGTIAGSPSTITYDISGAGVTKFFSYLGIDRSANPINEQYAKVDKIEVVVDGKVIYSTINQFPNGLTYETPAIKVDLNIPENAKRLQLKSYAGEKTWGDEVVYADAKFTAKGDFVN,glycan array binding signal (z-score),[1],-0.155
same,glycan array binding signal (z-score),[2],-0.234
same,glycan array binding signal (z-score),[3],-0.279
same,glycan array binding signal (z-score),[4],-0.315
same,glycan array binding signal (z-score),[5],-0.254
same,glycan array binding signal (z-score),[6],-0.215
same,glycan array binding signal (z-score),[7],-0.283
same,glycan array binding signal (z-score),Gal(b1-4)Glc,-0.248
same,glycan array binding signal (z-score),Gal(b1-4)Glc6S,-0.136
same,glycan array binding signal (z-score),Gal(b1-4)GlcNAc,-0.262
same,glycan array binding signal (z-score),[8],-0.161
same,glycan array binding signal (z-score),[9],-0.206
same,glycan array binding signal (z-score),[10],-0.252
same,glycan array binding signal (z-score),[11],-0.212
same,glycan array binding signal (z-score),[12],-0.219
same,glycan array binding signal (z-score),[13],0.082
same,glycan array binding signal (z-score),[14],-0.114
same,glycan array binding signal (z-score),[15],-0.188
same,glycan array binding signal (z-score),[16],-0.311
same,glycan array binding signal (z-score),[17],-0.196
same,glycan array binding signal (z-score),[18],-0.182
same,glycan array binding signal (z-score),[19],-0.101
same,glycan array binding signal (z-score),[20],-0.211
same,glycan array binding signal (z-score),[21],-0.24
same,glycan array binding signal (z-score),Gal3S(b1-3)GalNAc,-0.291
same,glycan array binding signal (z-score),Gal3S(b1-3)GlcNAc,-0.009
same,glycan array binding signal (z-score),[22],0.013
same,glycan array binding signal (z-score),Gal3S(b1-4)Glc,-0.221
same,glycan array binding signal (z-score),Gal3S(b1-4)Glc6S,-0.074
same,glycan array binding signal (z-score),Gal3S(b1-4)GlcNAc,-0.144
same,glycan array binding signal (z-score),Gal3S(b1-4)GlcNAc6S,-0.143
same,glycan array binding signal (z-score),[23],-0.211
same,glycan array binding signal (z-score),Gal3S4S(b1-4)GlcNAc,-0.16
same,glycan array binding signal (z-score),Gal3S6S(b1-4)GlcNAc,0.137
same,glycan array binding signal (z-score),Gal3S6S(b1-4)GlcNAc6S,-0.037
same,glycan array binding signal (z-score),Gal4S(b1-4)GlcNAc,-0.22
same,glycan array binding signal (z-score),Gal4S6S(b1-4)GlcNAc,-0.238
same,glycan array binding signal (z-score),Gal6S(b1-4)Glc,-0.098
same,glycan array binding signal (z-score),Gal6S(b1-4)Glc6S,-0.289
same,glycan array binding signal (z-score),Gal6S(b1-4)GlcNAc,-0.065
same,glycan array binding signal (z-score),Gal6S(b1-4)GlcNAc6S,-0.291
same,glycan array binding signal (z-score),GalNAc(a1-3)Gal,-0.092
same,glycan array binding signal (z-score),GalNAc(a1-3)GalNAc,-0.243
same,glycan array binding signal (z-score),GalNAc(b1-3)Gal,-0.261
same,glycan array binding signal (z-score),[24],-0.306
same,glycan array binding signal (z-score),GalNAc(b1-3)GalNAc,-0.337
same,glycan array binding signal (z-score),GalNAc(b1-4)GlcNAc,-0.149
same,glycan array binding signal (z-score),Glc(a1-4)Glc,-0.221
same,glycan array binding signal (z-score),Glc(a1-6)Glc(a1-6)Glc,-0.282
same,glycan array binding signal (z-score),Glc(b1-4)Glc,-0.19
same,glycan array binding signal (z-score),Glc(b1-6)Glc,-0.092
same,glycan array binding signal (z-score),GlcA(b1-3)Gal,-0.196
same,glycan array binding signal (z-score),GlcA(b1-3)GlcNAc,-0.237
same,glycan array binding signal (z-score),GlcA(b1-6)Gal,0.04
same,glycan array binding signal (z-score),[25],0.016
same,glycan array binding signal (z-score),[26],-0.276
same,glycan array binding signal (z-score),[27],-0.175
same,glycan array binding signal (z-score),[28],-0.097
same,glycan array binding signal (z-score),GlcNAc(b1-3)Gal,-0.243
same,glycan array binding signal (z-score),[29],-0.125
same,glycan array binding signal (z-score),GlcNAc(b1-3)Gal(b1-4)Glc,-0.254
same,glycan array binding signal (z-score),[30],-0.291
same,glycan array binding signal (z-score),[31],-0.233
same,glycan array binding signal (z-score),GlcNAc(b1-3)GalNAc,-0.269
same,glycan array binding signal (z-score),GlcNAc(b1-3)Man,0.097
same,glycan array binding signal (z-score),[32],-0.241
same,glycan array binding signal (z-score),[33],-0.149
same,glycan array binding signal (z-score),[34],-0.107
same,glycan array binding signal (z-score),[35],-0.126
same,glycan array binding signal (z-score),GlcNAc(b1-4)GlcNAc,-0.234
same,glycan array binding signal (z-score),[36],-0.22
same,glycan array binding signal (z-score),[37],0.002
same,glycan array binding signal (z-score),[38],-0.262
same,glycan array binding signal (z-score),[39],-0.218
same,glycan array binding signal (z-score),[40],-0.226
